Measured values published in publication PMC6451091.
The list shows a part of the results. For part of these data: At the low end of the ranking, values are background and their order means little. For part of these data: Measured with an extract: partners may take part in the binding.

biological target: PU.1 (IVT) (UniProt P17947); test: protein-binding microarray (PBM); settings: 20 mM HEPES pH 7.9, 100 mM NaCl, 1 mM DTT, 0.2 mg/mL BSA, 0.02% Triton X-100, 2% milk, 0.4 mg/mL salmon testes DNA; 1 h; temperature not stated; high values mean tight binding; double strand, one strand shown; sequences stand for … in GCCTAGCAC…GTGCTAGGTCTTGATTCGCTTGACGCTGCTG

| Sequence | binding signal [z-score] |
| --- | --- |
| CTTGTGAGGAAGTGACTAGC | 3.66 |
| CCTTAGGGGAAGTGTGAAGT | 3.49 |
| CATTTGAGGAAGTGGGAACA | 6.05 |
| ACAAGGGGGAAGTGGGAGCA | 3.63 |
| CTGAGGAGGAAGTGTGCTTG | 3.98 |
| AAAAAAAGGAAGTACAGTAA | 6.54 |
| GAGAAGAGGAAGTGTGTGCA | 6.28 |
| GAAAACAGGAAGTCCCAGAG | 7.04 |
| TCCGAGGGGAAGTGTCCATT | 2.98 |
| AAAAAGAGGAAGTCAAATAA | 8.51 |
| TCAAAGAGGAAGTGACATTT | 7.03 |
| TGAAAGAGGAAGCGCAACCA | 4.68 |
| AAAAAAAGGATCTGGCTAGA | 0.682 |
| GCAGACAGGAAGTGGGAATT | 2.96 |
| AGGAAAAGGAAGTGGCTTTG | 3.82 |
| GCGAAGGGGAAGTCTCGATG | 3.74 |
| TAAGAAAGGAAGTGAGCAGA | 2.26 |
| GATAAGGGGAAGTGTATACT | 5.39 |
| AAAAAAGGGAAGTGCAAGAT | 7.79 |
| AAATTGGGGAAGTGAGCCTG | 6.33 |

| Sequence | binding signal [z-score] |
| --- | --- |
| AGGAACGGGAAGTGAGCTAC | 4.22 |
| GGAATAGGGAAGTCACTCTG | 6.06 |
| ATGGTGAGGAAGTGTGCATG | 2.66 |
| GTTTTGAGGAACTGGATTCT | 4.57 |
| TCTGAGGGGAAGTGCTGGTC | 3.23 |
| AAATAGAGGAAGTGGTTTAT | 7.55 |
| AAGGATGGGAAGTACTGTGG | 2.42 |
| AAAAAAAGGAACTGGCTACA | 4.54 |
| AAATTAGGGAAGTGGAAGAA | 6.13 |
| GGAAAGAGGAACTGGCTTGT | 6.29 |
| AAGAAGAGGAAGTCAGATCA | 6.19 |
| GCTTTAAGGAACTACTGTGG | 2.81 |
| GGAGAAAGGAAGTGACTCAC | 2.76 |
| TGAATGAGGAAGTCTTACTA | 6.39 |
| TGAAAGATGAAGTGCAACCA | 0.288 |
| CAAATGAGGAACTGATGCGC | 6.12 |
| AAAACAAGGAACTGGCTAGA | 2.96 |
| AAAAACAGGAAGTCGCCTCC | 7.73 |
| CAAAAGAGGAAGTCACTGCA | 8.02 |

biological target: PU.1 (endogenous, THP-1 nuclear extract) (UniProt P17947); test: nuclear extract protein-binding microarray (nextPBM); settings: 20 mM HEPES pH 7.9, 100 mM NaCl, 1 mM DTT, 0.2 mg/mL BSA, 0.02% Triton X-100, 2% milk, 0.4 mg/mL salmon testes DNA; 1 h; temperature not stated; high values mean tight binding; double strand, one strand shown; sequences stand for … in GCCTAGCAC…GTGCTAGGTCTTGATTCGCTTGACGCTGCTG

| Sequence | binding signal [z-score] |
| --- | --- |
| CTTGTGAGGAAGTGACTAGC | 3.69 |
| CCTTAGGGGAAGTGTGAAGT | 3.48 |
| CATTTGAGGAAGTGGGAACA | 6.37 |
| ACAAGGGGGAAGTGGGAGCA | 3.85 |
| CTGAGGAGGAAGTGTGCTTG | 4.22 |
| AAAAAAAGGAAGTACAGTAA | 6.74 |
| GAGAAGAGGAAGTGTGTGCA | 6.61 |
| GAAAACAGGAAGTCCCAGAG | 7.07 |
| TCCGAGGGGAAGTGTCCATT | 2.9 |
| AAAAAGAGGAAGTCAAATAA | 7.58 |
| TCAAAGAGGAAGTGACATTT | 6.84 |
| TGAAAGAGGAAGCGCAACCA | 5.73 |
| AAAAAAAGGATCTGGCTAGA | 0.671 |
| GCAGACAGGAAGTGGGAATT | 3.05 |
| AGGAAAAGGAAGTGGCTTTG | 3.97 |
| GCGAAGGGGAAGTCTCGATG | 4 |
| TAAGAAAGGAAGTGAGCAGA | 2.19 |
| GATAAGGGGAAGTGTATACT | 5.57 |
| AAAAAAGGGAAGTGCAAGAT | 7.14 |
| AAATTGGGGAAGTGAGCCTG | 6.56 |

| Sequence | binding signal [z-score] |
| --- | --- |
| AGGAACGGGAAGTGAGCTAC | 4.97 |
| GGAATAGGGAAGTCACTCTG | 6.53 |
| ATGGTGAGGAAGTGTGCATG | 2.85 |
| GTTTTGAGGAACTGGATTCT | 4.79 |
| TCTGAGGGGAAGTGCTGGTC | 3.51 |
| AAATAGAGGAAGTGGTTTAT | 7.1 |
| AAGGATGGGAAGTACTGTGG | 2.18 |
| AAAAAAAGGAACTGGCTACA | 4.08 |
| AAATTAGGGAAGTGGAAGAA | 6.48 |
| GGAAAGAGGAACTGGCTTGT | 6.58 |
| AAGAAGAGGAAGTCAGATCA | 6.38 |
| GCTTTAAGGAACTACTGTGG | 2.69 |
| GGAGAAAGGAAGTGACTCAC | 2.8 |
| TGAATGAGGAAGTCTTACTA | 6.42 |
| TGAAAGATGAAGTGCAACCA | 0.364 |
| CAAATGAGGAACTGATGCGC | 6.35 |
| AAAACAAGGAACTGGCTAGA | 2.83 |
| AAAAACAGGAAGTCGCCTCC | 7.26 |
| CAAAAGAGGAAGTCACTGCA | 7.45 |

biological target: T1, FLI1 (endogenous, THP-1 nuclear extract) (UniProt Q01543); test: as above; settings: 20 mM HEPES pH 7.9, 100 mM NaCl, 1 mM DTT, 0.2 mg/mL BSA, 0.02% Triton X-100, 2% milk, 0.4 mg/mL salmon testes DNA; 1 h; temperature not stated; high values mean tight binding; double strand, one strand shown; sequences stand for … in GCCTAGCAC…GTGCTAGGTCTTGATTCGCTTGACGCTGCTG
T1 sequence: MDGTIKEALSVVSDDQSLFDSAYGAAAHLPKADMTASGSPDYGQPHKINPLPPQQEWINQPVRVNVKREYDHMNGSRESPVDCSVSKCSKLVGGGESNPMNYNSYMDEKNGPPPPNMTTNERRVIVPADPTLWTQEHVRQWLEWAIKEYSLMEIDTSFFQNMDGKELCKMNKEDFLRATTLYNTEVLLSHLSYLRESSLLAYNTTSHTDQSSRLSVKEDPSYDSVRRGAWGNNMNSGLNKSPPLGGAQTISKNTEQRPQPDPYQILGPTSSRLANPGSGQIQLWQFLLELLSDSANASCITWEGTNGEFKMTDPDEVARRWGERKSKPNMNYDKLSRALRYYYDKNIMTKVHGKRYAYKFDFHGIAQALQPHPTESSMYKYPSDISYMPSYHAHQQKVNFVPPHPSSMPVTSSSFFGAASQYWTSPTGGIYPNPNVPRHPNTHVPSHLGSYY

| Sequence | binding signal [z-score] |
| --- | --- |
| CTTGTGAGGAAGTGACTAGC | 2.09 |
| CCTTAGGGGAAGTGTGAAGT | 1.71 |
| CATTTGAGGAAGTGGGAACA | 2.44 |
| ACAAGGGGGAAGTGGGAGCA | 1.58 |
| CTGAGGAGGAAGTGTGCTTG | 2.5 |
| AAAAAAAGGAAGTACAGTAA | 3.27 |
| GAGAAGAGGAAGTGTGTGCA | 2.65 |
| GAAAACAGGAAGTCCCAGAG | 4.35 |
| TCCGAGGGGAAGTGTCCATT | 2.06 |
| AAAAAGAGGAAGTCAAATAA | 3.99 |
| TCAAAGAGGAAGTGACATTT | 3.73 |
| TGAAAGAGGAAGCGCAACCA | 2.46 |
| AAAAAAAGGATCTGGCTAGA | -0.466 |
| GCAGACAGGAAGTGGGAATT | 5.58 |
| AGGAAAAGGAAGTGGCTTTG | 2.94 |
| GCGAAGGGGAAGTCTCGATG | 1.74 |
| TAAGAAAGGAAGTGAGCAGA | 2.32 |
| GATAAGGGGAAGTGTATACT | 2.44 |
| AAAAAAGGGAAGTGCAAGAT | 3.43 |
| AAATTGGGGAAGTGAGCCTG | 3.1 |

| Sequence | binding signal [z-score] |
| --- | --- |
| AGGAACGGGAAGTGAGCTAC | 2.26 |
| GGAATAGGGAAGTCACTCTG | 2.66 |
| ATGGTGAGGAAGTGTGCATG | 1.74 |
| GTTTTGAGGAACTGGATTCT | 1.25 |
| TCTGAGGGGAAGTGCTGGTC | 2.35 |
| AAATAGAGGAAGTGGTTTAT | 3.85 |
| AAGGATGGGAAGTACTGTGG | 1.04 |
| AAAAAAAGGAACTGGCTACA | 1.58 |
| AAATTAGGGAAGTGGAAGAA | 2.48 |
| GGAAAGAGGAACTGGCTTGT | 2.41 |
| AAGAAGAGGAAGTCAGATCA | 3.14 |
| GCTTTAAGGAACTACTGTGG | 0.836 |
| GGAGAAAGGAAGTGACTCAC | 2.83 |
| TGAATGAGGAAGTCTTACTA | 2.57 |
| TGAAAGATGAAGTGCAACCA | -0.676 |
| CAAATGAGGAACTGATGCGC | 1.89 |
| AAAACAAGGAACTGGCTAGA | 0.659 |
| AAAAACAGGAAGTCGCCTCC | 5.01 |
| CAAAAGAGGAAGTCACTGCA | 3.64 |
